These results are taken from PubChem BioAssay (NCI).

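These data come from cells grown in 96-well plates and exposed to compound for 48 hours at five concentrations. Abbreviation: GI50, concentration required for 50% inhibition of growth. TGI is the concentration that stops growth completely.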

The assay relates to NCI-H322M lung. Briefly: NCI tumour cell line growth inhibition, 48 h.
With `Cn1cc(-c2cc(N)n3nc(-c4c[nH]c5ccc(F)cc45)cc3n2)c2cccnc21`, the GI50 is 2.9 µM and the TGI was 11 µM.
As for `COc1ccc2[nH]c(=O)c(CSc3ccccc3Nc3nccc(-c4ccc(C(F)(F)F)cc4)n3)cc2c1`, the GI50 is 13.8 µM and the TGI amounted to 26.7 µM.
With `CSc1ccc(NC(=O)c2ccc3nn(/C(C#N)=C/c4ccccn4)nc3c2)cc1`, the GI50 was 2.06 µM and the TGI came to 4.77 µM.
On to `COc1ccc(CCC2NCCc3c(Br)c4c(c(OC)c32)OCO4)cc1` (configuration not stated), for which the GI50 is 6.86 µM and the TGI worked out at 40 µM.
Turning to `CCN1CCN(Cc2ccc(C(=O)Nc3cccc(Nc4ccc5c(OC)cccc5n4)c3)cc2C(F)(F)F)CC1`, the GI50 is 3.5 µM and the TGI came to 14.2 µM.
Regarding `O=C1CCC(N2Cc3c(C#CCCCNC(=O)c4ccc(NC(=O)[C@@H]5NC6(CCCCC6)[C@@]6(C(=O)Nc7cc(Cl)ccc76)[C@H]5c5cccc(Cl)c5F)cc4)cccc3C2=O)C(=O)N1` (some centres not stated), the GI50 was 51.6 µM and the TGI is greater than 100 µM.
